Assay results as given in US20170058015A1 (ALBERT EINSTEIN COLLEGE OF MEDICINE, published 2017).

T1: recombinant mouse 4-1BB-Fc fusion protein (mouse, UniProt P20334 24-187)
T1 construct: From commercial sources; coated on Protein A microbeads; also called murine 4-1BB; murine receptor; not shown: Fc of the commercial fusion protein
T1 sequence (looked up): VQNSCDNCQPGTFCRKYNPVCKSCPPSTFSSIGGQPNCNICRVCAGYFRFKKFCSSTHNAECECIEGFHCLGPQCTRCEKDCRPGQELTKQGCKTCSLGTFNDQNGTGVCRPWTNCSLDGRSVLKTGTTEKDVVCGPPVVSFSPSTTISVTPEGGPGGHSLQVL


Tests used:
[1] = target: T2, recombinant human 4-1BB-Fc fusion protein (human, UniProt Q07011 24-186); assay: flow cytometry, Protein A microbeads coated with 4-1BB-Fc; detection antibody to the synTac heavy chain isotype
T2 construct: From commercial sources; coated on Protein A microbeads; also called human receptor; not shown: Fc of the commercial fusion protein

[2] = target: T1, recombinant mouse 4-1BB-Fc fusion …; assay: as above

| binding result [1] | binding result [2] | Binder |
| --- | --- | --- |
| binds | binds | synTac 69/98 (DL1, disulfide lock-1; 4-1BBL Q94C:P245C) (Fc fusion, Engineered disulfides […] between 4-1BBL protomers. Disulfide between linker Cys and H-2Kd Cys84. Fc hinge disulfides., copies: 2 + 2 + 4) b2m: VYLKTNVFLGCGASGGGGSGGGGSMIQKTPQIQVYSRHPPENGKPNILNCYVTQFHPPHIEIQMLKNGKKIPKVEMSDMSFSKDWSFYILAHTEFTPTETDTYACRVKHASMAEPKTVYWDRDMGGGGSGGGGSGGGGSGGGGSGGGGS[sequence of about 200 residues with changes not given]SGSGATNFSLLKQAGDVEENPG MHC heavy: GPHSLRYFVTAVSRPGLGEPRFIAVGYVDDTQFVRFDSDADNPRFEPRAPWMEQEGPEYWEEQTQRAKSDEQWFRVSLRTAQRCYNQSKGGSHTFQRMFGCDVGSDWRLLRGYQQFAYDGRDYIALNEDLKTWTAADTAALITRRKWEQAGDAEYYRAYLEGECVEWLRRYLELGNETLLRTDSPKAHVTYHPRSQVDVTLRCWALGFYPADITLTWQLNGEDLTQDMELVETRPAGDGTFQKWAAVVVPLGKEQNYTCHVHHKGLPEPLTLRWAAAGGPRGPTIKPCPPCKCPAPNLLGGPSVFIFPPKIKDVLMISLSPIVTCVVVDVSEDDPDVQISWFVNNVEVHTAQTQTHREDYNSTLRVVSALPIQHQDWMSGKEFKCKVNNKDLPAPIERTISKPKGSVRAPQVYVLPPPEEEMTKKQVTLTCMVTDFMPEDIYVEWTNNGKTELNYKNTEPVLDSDGSYFMYSKLRVEKKNWVERNSYSCSVVHEGLHNHHTTKSFSRTPGKGGSHHHHHHHH [sequence of about 200 residues with changes not given] |
| binds | binds | synTac 70/99 (DL2; 4-1BBL Q94C:P242C) (Fc fusion, Engineered disulfides […] between 4-1BBL protomers. Disulfide between linker Cys and H-2Kd Cys84. Fc hinge disulfides., copies: 2 + 2 + 4) b2m: VYLKTNVFLGCGASGGGGSGGGGSMIQKTPQIQVYSRHPPENGKPNILNCYVTQFHPPHIEIQMLKNGKKIPKVEMSDMSFSKDWSFYILAHTEFTPTETDTYACRVKHASMAEPKTVYWDRDMGGGGSGGGGSGGGGSGGGGSGGGGS[sequence of about 200 residues with changes not given]SGSGATNFSLLKQAGDVEENPG MHC heavy: GPHSLRYFVTAVSRPGLGEPRFIAVGYVDDTQFVRFDSDADNPRFEPRAPWMEQEGPEYWEEQTQRAKSDEQWFRVSLRTAQRCYNQSKGGSHTFQRMFGCDVGSDWRLLRGYQQFAYDGRDYIALNEDLKTWTAADTAALITRRKWEQAGDAEYYRAYLEGECVEWLRRYLELGNETLLRTDSPKAHVTYHPRSQVDVTLRCWALGFYPADITLTWQLNGEDLTQDMELVETRPAGDGTFQKWAAVVVPLGKEQNYTCHVHHKGLPEPLTLRWAAAGGPRGPTIKPCPPCKCPAPNLLGGPSVFIFPPKIKDVLMISLSPIVTCVVVDVSEDDPDVQISWFVNNVEVHTAQTQTHREDYNSTLRVVSALPIQHQDWMSGKEFKCKVNNKDLPAPIERTISKPKGSVRAPQVYVLPPPEEEMTKKQVTLTCMVTDFMPEDIYVEWTNNGKTELNYKNTEPVLDSDGSYFMYSKLRVEKKNWVERNSYSCSVVHEGLHNHHTTKSFSRTPGKGGSHHHHHHHH [sequence of about 200 residues with changes not given] |
